Laboratory results from the supplement of paper PMC3334620.
The full ranking holds about 33,000 sequences; the median of “E-score (-0.5 to 0.5)” is about -0.013, and the highest 2% start at about 0.3. The list shows a part of the results.

Each sequence was assayed against T1, Msn1 (UniProt P22148) (assay: PBM E-score (8-mer binding enrichment) (E-score (-0.5 to 0.5)); higher = stronger / more preferred TF binding; most listed sequences are background and not binding sites). Settings: protein concentration: 200 nM; construct: GST-full length.
T1 sequence: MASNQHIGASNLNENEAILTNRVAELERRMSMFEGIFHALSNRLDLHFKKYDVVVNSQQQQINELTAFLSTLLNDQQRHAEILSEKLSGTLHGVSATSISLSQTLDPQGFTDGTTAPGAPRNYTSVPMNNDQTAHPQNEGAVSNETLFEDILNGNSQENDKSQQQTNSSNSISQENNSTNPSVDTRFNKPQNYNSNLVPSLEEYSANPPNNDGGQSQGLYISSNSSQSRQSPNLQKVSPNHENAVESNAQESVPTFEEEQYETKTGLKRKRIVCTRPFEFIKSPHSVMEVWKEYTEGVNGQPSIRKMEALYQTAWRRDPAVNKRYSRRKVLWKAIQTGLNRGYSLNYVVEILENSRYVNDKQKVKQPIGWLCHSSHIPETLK
Procedure: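 Universal 'all 10-mer' protein binding microarrays (Agilent AMADID 015681) probed with GST-tagged S. cerevisiae TFs (full-length or DBD) made by in vitro transcription/translation (PURExpress), about 100-200 nM. Bound TF was detected with fluorescent anti-GST. Each ungapped 8-mer (which stands for itself and its reverse complement) is scored by the PBM enrichment score (E-score), a modified Wilcoxon-Mann-Whitney statistic from -0.5 to +0.5, computed with the Universal PBM Analysis Suite. Scale: above 0.35 generally sequence-specific binding.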

Sequence	PBM E-score
AAACATTA	-0.0805
CCCACAGG	-0.227
CCGCTTAG	-0.167
TCTAACCA	0.0639
CGGCCGGA	0.0752
CCTACAGC	-0.0784
GCTCGCAC	-0.073
AAGTCAAA	0.133
TGAGGACA	0.46
AAGCACGG	-0.188
CCCTCACG	-0.189
AATCGTGG	0.0628
AATTTTTG	0.234
AGACGACG	-0.192
ATCCAGTA	-0.0383
GCATGCCC	0.101
GGGTTGAC	-0.236
AAAAGGAG	-0.158
CCCTTGTA	-0.0851
TCCGGGAA	0.156
CAGAGATC	-0.0826
TAGGCACA	-0.112
GTGATTTA	0.0986
ATGCCCTC	-0.248
GAGCTCGA	0.0491

Sequence	PBM E-score
CCTTTGTC	0.367
ATCATCGC	-0.0326
CTACAGAA	0.129
CAGAAATA	0.0248
CTCCGAAG	0.0712
AACGGCAC	0.0409
CCAGCGCG	-0.158
CATCGGTC	0.00255
GCAAGAAC	0.151
TCAATTGA	0.099
GCGCCCGC	-0.19
GCGATCCC	-0.192
AACTGAAA	0.123
CTCTCGCA	-0.144
CCCAAGAC	0.0872
CCTGACTC	-0.0525
CAGAGATG	0.157
CATCTTCA	0.0522
AGACCTTC	-0.214
GCCCATCA	-0.169
CAGGATTA	0.113
GTATCAAC	0.113
ACGACGAT	0.0193
CGAGCACC	-0.138
CTTGGGCC	-0.266

Sequence	PBM E-score
AAATATGG	0.0638
ATCAAGGG	-0.0321
ACTGAGAT	-0.0631
AGGGAACA	0.0286
AACTAAAG	0.179
TACGCATA	0.212
CTTGTCGC	0.166
TATCGAAA	0.0812
ACTTGCAC	0.0427
AGACCACC	-0.327
AGGCGGCC	-0.119
AGGTCGAC	0.0284
AGGGAGTA	-0.157
CACGTTGC	-0.0714
AAGTTCAT	0.0759
GAGCGCGC	-0.0891
GGACCCCC	-0.333
AAACGTAT	0.0712
ACCGTAAA	0.0363
ACTGGCAA	0.0309
GCGCAAAA	0.121
AAATGTGG	0.147
GGCCAGAC	0.118
ATTTAGTA	0.216
GGATTAAA	-0.0103

Sequence	PBM E-score
GCGGTTGA	-0.143
TCTGGCCA	-0.0159
ATGGGGCG	-0.1
GCGATACC	-0.216
CCTTAGCA	-0.165
AGAACTGA	0.0524
ATCGACGC	0.123
AATGATAA	0.182
ACACTCCT	-0.126
AATTCCAC	0.158
GGCCAACC	-0.103
TATACGAA	0.132
TATATGAA	0.182
GAGGTATA	0.0048
ATAGTAGA	0.0835
ACGATGCA	-0.0853
AGTATCTG	-0.0612
ACTGTTGA	-0.0664
AAGACACG	0.248
AGTCCGTC	0.206
AAGTTCCT	0.0786
AGTACTAA	0.121
AGATTCCA	0.0417
ATGTTCAA	0.185
ACAATGCA	0.222

Sequence	PBM E-score
CAGGTTGG	-0.102
CCGCACGG	-0.194
CCGCCTTA	-0.165
CGAAAGCC	-0.152
CGTGGTTA	0.0491
TGAACAAA	0.175
ATTCTATG	0.0183
AGGATATG	0.105
ATACCGAA	0.174
CAGTCTGG	-0.213
ATACGGGC	-0.0422
GCAGAATA	0.039
CAACTCAC	-0.0341
ACGAGCCC	-0.291
CATCCAAG	-0.0981
CCTTCAAG	-0.201
AGCACGAT	-0.133
AAGGGTAG	-0.157
GCTAGTTA	-0.0898
ACGCACTA	0.0224
CTTTGCCC	-0.115
AGCGCGGA	0.0344
CCCCTGAA	-0.0139
ATGTATGG	-0.0391
ATCTATTA	-0.00074

Sequence	PBM E-score
AGACCCCC	-0.376
TCCAAGGA	0.0257
AGTCTAGA	-0.0412
ATTGAGTG	-0.0801
GATCAGGC	-0.0213
CTTCAGTC	-0.103
TCTTCGCA	0.11
AACGAAGG	-0.197
TACTCCAA	-0.074
ACGTCAAC	-0.0562
GATCGACA	0.0819
GTCGCAGA	0.116
AATCTTGT	0.139
ACCCTCCC	-0.0932
CCATTTGA	-0.0557
CGTGCTAA	-0.0653
TACAATCA	0.0162
AAATGTAG	-0.0386
AAGAGATA	-0.151
ATTCGTAC	0.0951
GATGTTCC	0.0607
ACAGCTCC	-0.0585
GCTAATCA	-0.0044
AAGATGGA	0.066
AGCGTTGG	-0.0707

Sequence	PBM E-score
GCTGCCCA	-0.113
TATTGCCA	-0.011
GCGCTGGA	-0.199
CGAAGTCA	0.0277
ATTCGCTC	0.225
GAGCACTA	-0.0253
ATCGCAAA	0.0406
GACACTAC	0.15
ATACTCGC	0.0688
CTAGAATA	0.18
GATCACGA	0.0365
CGCGTAGC	-0.121
CCCTACGG	-0.302
CTAACACC	-0.136
CGAGCTCG	0.179
GGCGTAGA	-0.208
AATTCGCA	0.0448
GGGCTCAA	-0.136
GGATCCAC	-0.148
GATGCCGC	0.0367
CAGAGGTA	-0.0212
GTCTTCAA	0.0796
AAACGGCA	0.0504
ACTAGCGA	0.0418
ATACATCA	0.153

Sequence	PBM E-score
CAGACATA	0.366
CCGCGGAG	-0.0215
CCTTCAGC	-0.126
CCAAATCG	-0.101
ACAATACC	0.205
GGGGTACA	0.121
CCTCAGAC	-0.0919
AACAGGTG	-0.17
ACCACATC	-0.0537
AACTTTGG	0.016
ATGTTGAG	0.0577
GCAATTCC	-0.0706
AGCAGTAC	-0.0576
CTCTCGTA	-0.159
ACCACGTC	-0.108
ACCGTGAT	0.0644
ACCTGACG	-0.11
ACCGGGTG	-0.154
GCACCCCC	-0.413
CTGACCAA	0.0777
AGCAACCT	-0.21
GGGGAACC	-0.423
TGGTCACA	0.0752
TCGCAACA	0.0181
ATTGACCA	-0.0398

Sequence	PBM E-score
GATTAGCA	-0.0853
CTGCCTCA	-0.275
GTTAAACA	0.118
CGCTAATA	-0.188
AGCCCCGC	-0.0507
GATGCCCC	-0.341
AAGTGGCA	0.0461
AAACAAGT	0.0512
CTGGGGCC	-0.384
ACTACCGG	-0.166
GCAATGGA	-0.0993
AGCCGCAT	-0.0442
ATGAAAAG	0.0683
CTCTAGAC	-0.0491
ACATACTA	0.235
AACCACCA	-0.189
AACGCTTC	-0.00759
ACCGCGGG	-0.0237
CTAAAGAA	0.0225
ATATGACG	0.158
CATCTCGG	0.066
AGAGCCAG	-0.282
AAATCGTC	0.0939
ACCACAGA	0.0742
CACCATTA	0.0979

Sequence	PBM E-score
ACTGCTTA	-0.114
CCTTGATA	0.0964
ATTGCACC	-0.0985
ATCTAGCA	0.0323
GGCGCTTA	-0.299
ATATTAAT	0.243
AGCGCTTA	0.0118
ATGTGAAC	-0.0349
ACGACAAC	0.227
TAAATTAA	0.172
GTTGACTA	-0.183
GCCTTGGA	0.0275
AACTCTCT	-0.0871
ACATGTAA	0.255
AAAGTAGG	0.109
AGAGGCTG	-0.382
CTCAAACA	0.165
TAGGCCCA	-0.183
ACTGCCCG	-0.0201
ATATCTGC	-0.112
ACGATAAA	0.0963
ACGTCCCT	0.19
AGTAGAGG	-0.167
TAACTGTA	-0.0885
GCCACGAC	-0.0142

Sequence	PBM E-score
AGTTACGC	-0.213
CTGACCAG	-0.0937
AGCGAGAG	0.0105
ATAGACGG	-0.0751
TAGTATCA	0.182
AGGTGATG	-0.14
GAAAGGAA	-0.0601
CTACATCA	-0.0627
GCACTGTA	0.113
AATGACCT	-0.0518
ATTGGAAC	0.0992
CTCTGTTA	-0.0542
CCATGGAA	0.126
GTGTGGAA	-0.108
AACAGCCA	0.0435
ACCTCGTG	0.0137
CTCTAATA	0.0908
ATGTCGTC	0.191
ACTTCGCC	0.0719
CCTTTACA	-0.0441
CCACGATA	0.138
AAGGATAC	-0.00372
CGAGTTCA	-0.0815
GGGCCTAA	-0.0118
AAACTGAA	0.0948

Sequence	PBM E-score
ACGACCGG	-0.212
ATTATGTG	0.151
AAGGGTTC	-0.0924
ACTTATTG	0.046
ATTAGCCC	-0.0474
ATGCCTGA	-0.0658
GTCCTTCA	0.246
CTCCCAAG	-0.135
AGATTGCC	-0.0449
CGACAATA	0.334
CATCCGTC	0.0891
TCGCATAA	0.148
GTGATACA	0.0682
AAACCCTG	-0.0419
CACTCGGG	-0.0597
CCCCAGCG	-0.241
TACCCCAA	0.0746
CATACAAA	0.287
AACGAGAC	0.108
AAAATTAG	0.178
AGGTGCTG	-0.164
AATACAGT	-0.0154
AAAGGGTT	0.0188
CGAACGTC	-0.0117
AAGTTTAA	-0.0616

Sequence	PBM E-score
GACCTGCA	-0.0965
ACATACAA	0.225
CTCACGTA	-0.304
ATCATTTA	0.11
GGAAGCAA	-0.132
GACACGGC	0.197
CATAAGGC	-0.094
ATTGCGCG	0.156
TCGCAGCA	0.156
CACGCCCG	-0.00176
CCAGATTC	-0.389
ATGTGGAG	-0.0453
GAATGCCC	-0.207
GAAACATC	-0.0562
ACCTAATC	0.092
AAAGATAT	0.113
AAAGGATC	0.0854
CGTCATCC	0.0181
CCTGATCA	-0.143
CCTGGGAA	-0.131
ACGGTCAA	-0.0149
CCGATTCG	0.269
ATAACCCG	-0.102
AACGATAA	-0.0638
CATTACGA	-0.0951

Sequence	PBM E-score
GCACAAAA	0.099
CTCGCAAA	0.0568
GTCCCTAA	0.234
GACTGTAC	-0.198
CACCATCG	-0.224
ACCCTCTC	-0.226
AGCAGAGC	-0.114
AGGACGTC	0.177
CCTCTAAA	-0.123
AGCATCTC	-0.145
ATAAAGGG	-0.187
GCCTTGCA	-0.11
ACAATGCC	-0.0526
AATCACCT	0.0451
AGAGCGGA	-0.0348
GTTTAGGA	0.00119
ATTGGCGA	-0.0991
CTTGGATA	0.0413
ACCAGTAG	-0.0698
